Laboratory results: article PMC4336329 (PLoS ONE, 2015)
Among all 310,000 compounds or so, about 14,000 (4.5%) showed an effect of 50% or more. The effect is printed as a negative number. Some of the results follow.

These compounds were tested against human ether-à-go-go-related gene (hERG) potassium channel (human, UniProt Q12809) (assay: primary screen, population patch clamp on CHO cells stably expressing hERG).
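Also: peak tail current of the secondary pulse compared with the same well before compound.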

human ether-à-go-go-related gene (hERG) potassium channel, sequence (Q12809 whole entry, looked up): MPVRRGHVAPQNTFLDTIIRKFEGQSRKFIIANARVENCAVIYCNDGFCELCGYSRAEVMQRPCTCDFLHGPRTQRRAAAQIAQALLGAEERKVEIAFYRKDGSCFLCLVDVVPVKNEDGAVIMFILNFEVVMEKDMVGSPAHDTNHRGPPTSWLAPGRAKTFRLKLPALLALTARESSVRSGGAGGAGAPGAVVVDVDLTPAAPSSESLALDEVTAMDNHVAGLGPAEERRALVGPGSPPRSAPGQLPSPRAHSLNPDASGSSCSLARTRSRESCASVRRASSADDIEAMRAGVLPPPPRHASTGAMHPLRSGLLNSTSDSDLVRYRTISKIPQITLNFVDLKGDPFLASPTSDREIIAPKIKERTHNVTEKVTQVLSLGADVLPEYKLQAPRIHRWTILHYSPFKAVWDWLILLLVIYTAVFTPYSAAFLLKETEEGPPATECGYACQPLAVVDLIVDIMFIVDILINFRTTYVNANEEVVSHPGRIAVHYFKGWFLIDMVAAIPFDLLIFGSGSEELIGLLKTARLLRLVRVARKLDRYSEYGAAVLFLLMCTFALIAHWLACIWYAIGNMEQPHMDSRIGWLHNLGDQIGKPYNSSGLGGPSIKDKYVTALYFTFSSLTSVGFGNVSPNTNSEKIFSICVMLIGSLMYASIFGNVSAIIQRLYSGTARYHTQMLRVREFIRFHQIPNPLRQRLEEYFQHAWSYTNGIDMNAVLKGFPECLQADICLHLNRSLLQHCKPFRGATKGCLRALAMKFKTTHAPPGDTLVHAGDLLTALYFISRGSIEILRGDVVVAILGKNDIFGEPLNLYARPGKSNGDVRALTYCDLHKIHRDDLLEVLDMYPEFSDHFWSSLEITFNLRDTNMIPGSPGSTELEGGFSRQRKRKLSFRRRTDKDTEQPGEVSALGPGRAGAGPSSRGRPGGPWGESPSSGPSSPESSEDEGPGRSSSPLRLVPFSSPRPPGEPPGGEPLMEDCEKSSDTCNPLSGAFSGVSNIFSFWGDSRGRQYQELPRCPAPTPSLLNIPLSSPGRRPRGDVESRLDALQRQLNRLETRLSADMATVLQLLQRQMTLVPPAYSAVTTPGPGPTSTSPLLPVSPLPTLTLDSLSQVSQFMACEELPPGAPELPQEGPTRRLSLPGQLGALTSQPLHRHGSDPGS

In order of rising “hERG current change (%, negative = inhibition) at 10uM” value:
1. Cc1ccc(S(=O)(=O)N(CC(=O)NCc2ccncc2)Cc2ccccc2F)cc1  -78.6%
2. COc1ccc(CN2C(=O)CN(C3CCCCCC3)C(=O)C2c2ccc(OC)c(OC)c2)cc1 (centres unmarked)  -42.2%
3. COc1ccc(N2CCN(C(=O)CCC(=O)N3CC(C)Oc4ccc(C)cc43)CC2)cc1 (centres unmarked)  -41%
4. CCN(CC(=O)NCc1ccc(Cl)cc1)C(=O)c1ccc(S(=O)(=O)N(C)C)cc1  -33.2%
5. CC1CCCN(C/C(O)=C(\C#N)c2nc3ccccc3[nH]2)C1 (centres unmarked)  -27.8%
6. CCCn1c(-c2cccs2)nc2ccccc21  -26.6%
7. COc1ccc(OC)c(NC(=O)Nc2cccc(Cn3cccn3)c2)c1  -20.7%
8. Cc1cc(C(=O)NC2CCN(Cc3ccccc3)CC2)n[nH]1  -19.8%
9. COc1cc(-c2nc(CN3CCN(CC(C)C)C(=O)[C@@H]3C)c(C)o2)ccc1F  -14.2%
10. O=C(CCC1CCCC1)Nc1cc(C(F)(F)F)ccc1N1CCOCC1  -13.7%
11. COc1ccc(OCc2cc(C(=O)N3CCN(CC(=O)N(C)C)CC3)no2)c(Cl)c1  -13.4%
12. CCOc1ncccc1C(=O)NCc1cccc(OC)c1  -12.8%
13. COC(=O)[C@H](C)NC(=O)Nc1cc(OC)ccc1OC  -8.76%
14. C=CCn1c(Cc2cccs2)nnc1SCC(=O)c1ccc2ccccc2c1  -8.42%
15. O=C1C2C3C=CC(C3)C2C(=O)N1Cc1ccc(CN2C(=O)C3C4C=CC(C4)C3C2=O)cc1 (centres unmarked)  -7.36%
16. CCOC(=O)C(C)Oc1cccc2c(=O)n(CC(=O)NCc3ccc(F)cc3)ccc12 (centres unmarked)  -4.43%
17. CCOC(=O)CNC(=O)C1CCCc2c1[nH]c1ccc(Cl)cc21 (centres unmarked)  -2.99%
18. CN(C)Cc1c(-c2ccc(Cl)cc2)nc2ccccn12  0.0702%
19. COc1ccc(S(=O)(=O)Nc2ccccc2C)cc1  0.614%
20. Cc1ccnc(Nc2nc3ccccc3o2)n1  1.42%
21. COC(=O)c1cn(N(C)c2ncc(C(F)(F)F)cc2Cl)c(=O)c2ccccc12  3.91%
22. COc1ccc(C(=O)CN2CCN(c3ncccn3)CC2)cc1.O=C(O)C(=O)O  5.13%
23. Cc1[nH]nc2c1C(c1ccc(F)cc1)C1=C(CC(C)(C)CC1=O)N2 (centres unmarked)  5.9%
24. O=C(Nc1nc(-c2cccs2)cs1)c1cccc(S(=O)(=O)N2CCCCC2)c1  6.17%
25. Nc1c(Cl)ncnc1N1CCOCC1  6.38%
26. O=C(CC1Sc2ncnn2C1=O)Nc1ccc(Cl)cc1 (centres unmarked)  6.43%
27. CC(=O)c1ccc(N2CCN(C(=S)Nc3ccc(Cl)c(Cl)c3)CC2)cc1  6.83%
28. COc1cc(=O)[nH]c(SC(C)C(=O)Nc2nc3c(s2)CCCC3)n1 (centres unmarked)  7.6%
29. CC1CCCC(C)N1C(=O)COC(=O)Cc1c[nH]c2ccccc12 (centres unmarked)  7.87%
30. CCCCn1c(N)c(N(CC(C)C)C(=O)CCCSc2nncs2)c(=O)[nH]c1=O  7.91%
31. Cc1ccc(S(=O)(=O)CCc2nnc(NC(=O)c3cnccn3)s2)cc1  8.7%
32. O=[N+]([O-])c1cc(Cl)cc(/C=N\Nc2ccccn2)c1O  10.5%
33. CSc1ncc(CN2CCCC(C(=O)Nc3ccc(-c4ccco4)cc3)C2)cn1 (centres unmarked)  11.1%
34. COCCCNC(=O)CCCn1c(=O)c2ccccc2n(CC(=O)Nc2c(C)cccc2C)c1=O  11.3%
35. C=CCn1c(O)c(C(CC)=NCCCO)c(=O)[nH]c1=O  12%
36. O=C(NCc1ccco1)c1ccc(Cl)nc1  12.4%
37. CCn1c(=O)[nH]c2cc(C(=O)Nc3cc(C)cc(C)c3)ccc2c1=O  13.1%
38. O=C(c1cccc([N+](=O)[O-])c1)c1ccc2c(c1)C(=O)N(c1c[nH]c(=O)[nH]c1=O)C2=O  13.4%
39. CC1CCCCC1NC(=O)COC(=O)COc1ccccc1Cl (centres unmarked)  15.1%
40. Cc1nc2ccccc2c(=O)n1/N=C/c1c(O)ccc2oc3c(c12)CCCC3  15.5%
41. O=C(Nc1sc2c(c1C(=O)N1CCOCC1)CCCCC2)c1cccnc1  17%
42. COc1ccc(OC)c(-c2csc(N3CCC(c4ccccc4)CC3)n2)c1  19.4%
43. COc1ccc(-c2nn(-c3ccccc3)cc2C(=O)NC2CCC(C)CC2)cc1 (centres unmarked)  19.9%
44. O=C(O)c1ccccc1C(=O)Nc1n[nH]c(=S)s1  20.2%
